The results in this text go back to patent US20210094999A1 (Novo Nordisk, published 2021).

In this assay the target is T1, solubilised human insulin receptor isoform A (IR-A) (human).
T1 construct: mature; Receptor solubilised from cells and captured on SPA beads by anti-IR mouse antibody 83-7; 'mature' is my reading of 'solubilised human IR-A'; The precursor is processed into alpha and beta chains; also called hIR; human insulin receptor (IR)
The experiment in a line: competition SPA on solubilised human IR-A against [125I-TyrA14]-human insulin; affinity relative to human insulin.

B1: N{Epsilon-B28}-17-carboxyheptadecanoyl-[GluA14,PheB5,GlyB26,LysB28],des-(B29-B30)-Insulin (ligand)
chain 1: not shown
chain 2: FVNQFLCGSHLVEALYLVCGERGFFGTK
modifications: Lys B28: N-epsilon acylated with C18 diacid, no linker
notes: A14E, B5F, B26G, B28K, desB29-B30
Take B1: the “hIR binding IC50 (% of human insulin)” value is 9 % of human insulin.
